Measured values from PubChem BioAssay AID686979 (National Center for Advancing Translational Sciences (NCATS), 2013).
“And” between values parts separate entries of the source, which are not always exact repeats. Equal values may be shown once. Hit rate of the full screen: of about 420,000 compounds, about 50,000 (12%) were called active. This list was built around the results that the source calls inconclusive (neither active nor inactive); the mix of calls is not that of the screen. The call rests on the fitted dose curve; in most records, active means well fitted inhibition curve with a large enough effect; inconclusive means small, poorly fitted or top-dose-only effect; inactive means flat fitted curve, though single readings scatter. Potencies beside an inconclusive call are fits to weak or partial responses and may not hold up.

assay: qHTS for Inhibitors of human tyrosyl-DNA phosphodiesterase 1 (TDP1): qHTS in cells in presence of CPT; conditions: chicken DT40 Tdp1-/-;hTDP1 cells + 20 nM CPT, ATP luminescence, 48 h; activity change, negative = growth inhibition: at 46.2 µM (top of the series) unless noted; further: nearly all actives have a fitted effect of over 55% in size
Outline: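 Cell growth measured by CellTiter-Glo luminescence after a minimum 48 h, 37 C compound exposure with 20 nM CPT in Tdp1-knockout DT40 cells stably expressing hTDP1, seeded 400/well; qHTS titration format.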
On the % scale 0 is the no-effect control and ±100 the full control effect; potency means the concentration at half of the fitted maximal effect; tags describe the fitted curve by direction and shape.

Row | SMILES | Potency | activity change, negative = growth inhibition
1 | O=[N+]([O-])c1cc([N+](=O)[O-])c2c(=Nc3ccccc3)n(-c3ccccc3)n(O)c2c1 | active: 3.26 µM | –
2 | O=C(NCCCN1CCN(Cc2ccccc2)CC1)C1CCN(c2nnc(-n3cccc3)s2)CC1 | inconclusive: 29.1 µM [inhibitor, single point] | –
3 | O=S(=O)(NCCc1ccccn1)c1ccc(F)c(F)c1 | inactive | –
4 | CC(=O)Nc1ccc(C(=O)N2CCCC(c3cc(C(=O)NCc4ccc(F)cc4)no3)C2)cc1 (centres undefined) | inconclusive: 29.1 µM [inhibitor, single point] | –
5 | COc1ccccc1NC(=O)COC(=O)C1=NN(c2ccccc2)C(=O)CC1 | inactive | –
6 | CC1=C(C(=O)N(C)C)CC(CC(=O)NCCCCc2ccccc2)C(=O)N1CCC1=CCCCC1 (centres undefined) | inconclusive: 20.6 µM [inhibitor, single point] | –
7 | CCn1cc(C(=O)Nc2ccc3c(c2)OCCO3)c2cc(OC)c(OC)cc2c1=O | inconclusive: 23.1 µM [inhibitor, single point] | –
8 | Cc1cccc(-n2ncc(Cl)c(Cl)c2=O)c1 | active: 5.17 µM | –
9 | CC(C)(C)c1nc(-c2ccccc2)nc2c1OCCC2 | inconclusive: 29.1 µM [inhibitor, single point] | –
10 | COc1ccc(OC)c(Nc2cc(C(=O)NCCCN3CCOCC3)c3ccccc3n2)c1 | inconclusive: 29.1 µM [inhibitor, single point] | –
11 | COc1cccc(/C=C2\SC(=S)N(CCC(=O)NCCc3ccc(O)cc3)C2=O)c1 | active: 18.4 µM | –
12 | Cc1ccc(N(C)S(=O)(=O)c2ccc(-c3coc(C)n3)cc2)cc1 | inactive | –
13 | O=C(CSc1nnc(-c2c[nH]c3ccccc23)o1)N(Cc1ccccc1)c1ccc(F)cc1 | inconclusive: 20.6 µM [inhibitor, single point] | –
14 | NC(=O)N/N=C/c1cc(Br)ccc1OCC(=O)NCc1ccccc1 | inactive | –
15 | COc1cccc(/C=N/N2C(=O)NC3(CCCCC3)C2=O)c1O | inactive | –
16 | COc1ccccc1N1CCN(CCCNC(=O)c2nnc(Cc3ccc(F)cc3Cl)o2)CC1 | inconclusive: 23.1 µM [inhibitor, single point] | –
17 | CCOc1ccc(S(=O)(=O)n2cnc(C)c2)cc1 | inconclusive: 16.4 µM [inhibitor, single point] | –
18 | O=C(/C=C/c1cccnc1)c1ccc(F)c(F)c1 | inconclusive: 25.9 µM [inhibitor, single point] | –
19 | CN(c1ccc(C(=O)NCCSC(C)(C)C)cc1)S(=O)(=O)c1ccccc1 | inconclusive: 29.1 µM [inhibitor, single point] | –
20 | Cc1nc2c(-c3ccc(F)cc3)c(C)nn2c(N2CCOCC2)c1C | inconclusive: 25.9 µM [inhibitor, single point] | –
21 | Cc1onc(-c2ccccc2)c1CNC(=O)Nc1cccc(Cl)c1 | inconclusive: 25.9 µM [inhibitor, single point] | –
22 | C[C@H](CO)N1C[C@H](C)[C@@H](CN(C)S(=O)(=O)c2ccccc2)Oc2ccc(NC(=O)CCN3CCOCC3)cc2C1=O | inactive | –
23 | CS(=O)(=O)NCCn1ccc2ccccc21 | – | inconclusive: -30.8% [inhibitor]

Row | SMILES | Potency | activity change, negative = growth inhibition
24 | Fc1ccc(CSc2nncn3c2cc2occc23)c(Cl)c1 | inconclusive: 23.1 µM [inhibitor, single point] | –
25 | CCOc1ccc(CCNC(=O)c2cc3sccc3n2CC)cc1OCC | active: 6.51 µM and active: 5.17 µM | –
26 | CCCC(=O)NC1=C(C#N)C2(CCCC2)Cc2ccccc21 | – | inconclusive: -34.8% [inhibitor]
27 | CCOC(=O)N(C)c1c(CC)nc2c(OCc3ccc(Cl)cc3Cl)cccn12 | inconclusive: 20.6 µM [inhibitor, single point] | –
28 | Cc1cc(C)c2oc(-c3ccc(NC(=O)COc4ccccc4C)cc3)nc2c1 | inconclusive: 20.6 µM [inhibitor, single point] | –
29 | CC1=C(C(=O)NCc2ccccc2)C(c2cc(Br)cc(Br)c2OC(C)C)NC(=O)N1 (centres undefined) | inconclusive: 20.6 µM [inhibitor, single point] | –
30 | CC1CCN(C(=O)c2ccc(S(=O)(=O)Cc3cccc(F)c3)c([N+](=O)[O-])c2)CC1 | inconclusive: 29.1 µM [inhibitor, single point] | –
31 | CCc1nc2ccc(C(=O)N3CCN(c4cc(C)ccc4C)CC3)cc2nc1CC | inconclusive: 23.1 µM [inhibitor, single point] and inconclusive: 29.1 µM [inhibitor, single point] | –
32 | O=C(Nc1ccccc1Oc1ccccc1)C1=COCCO1 | inactive | –
33 | Cc1cc(C)c(C#N)c(SCC(=O)CC(=O)OC(C)C)n1 | inconclusive: 29.1 µM [inhibitor, single point] | –
34 | CC1CCN(C(=O)c2ccc3c(c2)NC(=O)CN3)CC1 | inactive | –
35 | CC(C)=CCc1c(O)ccc(C2COc3c(CC=C(C)C)c(O)cc(O)c3C2=O)c1O (centres undefined) | inconclusive: 11.6 µM [inhibitor, partial curve, poor fit] | –
36 | CC[C@H](C)[C@@H](C(=O)NCCCCCCCCCCC(=O)N1CCNCC1)n1cc(CCCCN=C(N)N)nn1 | inconclusive: 29.1 µM [inhibitor, single point] | –
37 | O=C(COC(=O)c1cccnc1Nc1cccc(C(F)(F)F)c1)NCCN1C(=O)CSC1=O | inconclusive: 29.1 µM [inhibitor, single point] | –
38 | OC(c1ccc(Cl)c(Cl)c1)c1ncc(-c2ccccc2C(F)(F)F)[nH]1 (centres undefined) | inconclusive: 29.1 µM [inhibitor, single point] | –
39 | O=C(Cc1coc2ccc3ccccc3c12)Nc1nnc(C2CC2)s1 | inconclusive: 29.1 µM [inhibitor, single point] | –
40 | COc1ccc(Nc2nc3ccc(C)cn3c(=O)c2/C=N/O)cc1 | active: 5.8 µM | –
41 | CCN(CC)C(=O)CSc1nc2c(sc(=S)n2-c2ccccc2)c(=O)n1-c1ccc(OC)c(OC)c1 | inactive | –
42 | COCCSc1ccccc1C(=O)Nc1ccc(Cl)cc1 | inconclusive: 20.6 µM [inhibitor, single point] | –
43 | COc1ccc(CCNC(=O)c2cn3ccc(C)cc3n2)cc1OC | inconclusive: 16.4 µM [inhibitor, single point] | –
44 | O=C(c1ccco1)N1CCN(Cc2cc(=O)c(OCc3c(F)cccc3Cl)co2)CC1 | inactive | –
45 | N#CN=c1snc(-c2ccccc2Cl)n1-c1ccccc1Cl | inconclusive: 17.8 µM [inhibitor, single point] | –
46 | C=CCNc1nnc(Cc2ccc(F)cc2)c(=O)[nH]1 | inactive | –

Row | SMILES | Potency | activity change, negative = growth inhibition
47 | CCOc1ccc(S(=O)(=O)Nc2ccccc2C(=O)Nc2ccccc2N2CCOCC2)cc1 | inconclusive: 29.1 µM [inhibitor, single point] | –
48 | Cc1ccc(Cc2c(-c3ccccc3)nc3ccc(Br)cn23)cc1 | inconclusive: 25.9 µM [inhibitor, single point] | –
49 | CCOC(=O)c1cc2ccccc2n1C1CCN(C)CC1 | inconclusive: 29.1 µM [inhibitor, single point] | –
50 | Cc1ccccc1-c1nc(NCC2CC2)nc2ccsc12 | active: 23.1 µM | –
51 | CC(=O)c1ccc(OCc2nnn(CC(=O)NS(=O)(=O)c3ccc(C)cc3)c2-c2ccccc2)cc1 | inactive | –
52 | CC1CCC(C(C)(C)O)CC2=C1CCC2C (centres undefined) | inactive | –
53 | COC(=O)c1nnn(CC(=O)Nc2c(C)cccc2C)c1N | inactive | –
54 | Cc1ccc(Cn2c(C(C)Nc3nc(-c4ccc(F)cc4)cs3)nc3cc(C(F)(F)F)ccc32)cc1 (centres undefined) | active: 20.6 µM | –
55 | Cc1ccc(S(=O)(=O)N2CCN(CCO)CC2)cc1-c1nnc2c3ccccc3c(C)nn12 | – | inconclusive: -30.2% [inhibitor]
56 | COc1cc(CN(C(=O)Nc2cccc(Cl)c2)c2ccccn2)cc(OC)c1OC | inconclusive: 20.6 µM [inhibitor, single point] | –
57 | CCN(CC)c1ccc(C2NC(=O)c3ccccc3N2)cc1 (centres undefined) | active: 7.31 µM | –
58 | CC(C)c1ccc(S(=O)(=O)N2CCN(CC(=O)Nc3ccccc3C(F)(F)F)CC2)cc1 | inconclusive: 20.6 µM [inhibitor, single point] | –
59 | O=C(O)CCCCCNC(=O)CSc1nnc(-c2ccco2)n1-c1ccccc1 | inactive | –
60 | CCCc1nc(NCC2CCCO2)c2nnn(Cc3ccccc3)c2n1 (centres undefined) | inconclusive: 25.9 µM [inhibitor, single point] | –
61 | CCOc1ccccc1NC(=O)c1cc(-c2cc(OC)c(OC)c(OC)c2)nc2ccccc12 | active: 10.3 µM | –
62 | O=C(CSCc1nc2scc(-c3cccs3)c2c(=O)[nH]1)Nc1ccccn1 | inactive | –
63 | O=C(OCC(=O)N(CCc1ccccc1)Cc1ccccc1)c1ccccc1NCCO | inconclusive: 23.1 µM [inhibitor, single point] | –
64 | CCN(c1ccc(OC)cc1)S(=O)(=O)c1ccc2c(c1)CC(C)N2C(=O)C1CC1 (centres undefined) | active: 20.6 µM | –
65 | CCNc1ncc2nc(CCc3ccccc3)c(=O)n(-c3ccccc3)c2n1 | inconclusive: 10.3 µM [inhibitor, partial curve, poor fit] | –
66 | CC(=O)c1cccc(NC(=O)CCn2nc(C)c(S(=O)(=O)N(C)C)c2C)c1 | inconclusive: 18.4 µM [inhibitor, single point] | –
67 | Cc1ccc(C(=O)NCC(c2cccs2)S(=O)(=O)c2ccccc2)cc1C (centres undefined) | active: 14.6 µM | –
68 | CC[N+](CC)(CC)CC(=O)Nc1ccc(SC(F)F)cc1 | inconclusive: 25.9 µM [inhibitor, single point] | –
69 | CCCCC(CC)CNC(=O)CCCCn1c(=O)[nH]c2ccsc2c1=O (centres undefined) | inconclusive: 29.1 µM [inhibitor, single point] | –
